Publication PMC12143978
Results are given in words; binding and its absence hold for the method and conditions named. Binding seen in cells or lysates may run through a third protein. Some entries that bind do so weakly or less than the wild type. For some of these results: Where a sequence is shown, tags or fusion partners need not be part of it.

By UniProt entry, the sequences of proteins in these tests, tags left out.
UniProt P78527: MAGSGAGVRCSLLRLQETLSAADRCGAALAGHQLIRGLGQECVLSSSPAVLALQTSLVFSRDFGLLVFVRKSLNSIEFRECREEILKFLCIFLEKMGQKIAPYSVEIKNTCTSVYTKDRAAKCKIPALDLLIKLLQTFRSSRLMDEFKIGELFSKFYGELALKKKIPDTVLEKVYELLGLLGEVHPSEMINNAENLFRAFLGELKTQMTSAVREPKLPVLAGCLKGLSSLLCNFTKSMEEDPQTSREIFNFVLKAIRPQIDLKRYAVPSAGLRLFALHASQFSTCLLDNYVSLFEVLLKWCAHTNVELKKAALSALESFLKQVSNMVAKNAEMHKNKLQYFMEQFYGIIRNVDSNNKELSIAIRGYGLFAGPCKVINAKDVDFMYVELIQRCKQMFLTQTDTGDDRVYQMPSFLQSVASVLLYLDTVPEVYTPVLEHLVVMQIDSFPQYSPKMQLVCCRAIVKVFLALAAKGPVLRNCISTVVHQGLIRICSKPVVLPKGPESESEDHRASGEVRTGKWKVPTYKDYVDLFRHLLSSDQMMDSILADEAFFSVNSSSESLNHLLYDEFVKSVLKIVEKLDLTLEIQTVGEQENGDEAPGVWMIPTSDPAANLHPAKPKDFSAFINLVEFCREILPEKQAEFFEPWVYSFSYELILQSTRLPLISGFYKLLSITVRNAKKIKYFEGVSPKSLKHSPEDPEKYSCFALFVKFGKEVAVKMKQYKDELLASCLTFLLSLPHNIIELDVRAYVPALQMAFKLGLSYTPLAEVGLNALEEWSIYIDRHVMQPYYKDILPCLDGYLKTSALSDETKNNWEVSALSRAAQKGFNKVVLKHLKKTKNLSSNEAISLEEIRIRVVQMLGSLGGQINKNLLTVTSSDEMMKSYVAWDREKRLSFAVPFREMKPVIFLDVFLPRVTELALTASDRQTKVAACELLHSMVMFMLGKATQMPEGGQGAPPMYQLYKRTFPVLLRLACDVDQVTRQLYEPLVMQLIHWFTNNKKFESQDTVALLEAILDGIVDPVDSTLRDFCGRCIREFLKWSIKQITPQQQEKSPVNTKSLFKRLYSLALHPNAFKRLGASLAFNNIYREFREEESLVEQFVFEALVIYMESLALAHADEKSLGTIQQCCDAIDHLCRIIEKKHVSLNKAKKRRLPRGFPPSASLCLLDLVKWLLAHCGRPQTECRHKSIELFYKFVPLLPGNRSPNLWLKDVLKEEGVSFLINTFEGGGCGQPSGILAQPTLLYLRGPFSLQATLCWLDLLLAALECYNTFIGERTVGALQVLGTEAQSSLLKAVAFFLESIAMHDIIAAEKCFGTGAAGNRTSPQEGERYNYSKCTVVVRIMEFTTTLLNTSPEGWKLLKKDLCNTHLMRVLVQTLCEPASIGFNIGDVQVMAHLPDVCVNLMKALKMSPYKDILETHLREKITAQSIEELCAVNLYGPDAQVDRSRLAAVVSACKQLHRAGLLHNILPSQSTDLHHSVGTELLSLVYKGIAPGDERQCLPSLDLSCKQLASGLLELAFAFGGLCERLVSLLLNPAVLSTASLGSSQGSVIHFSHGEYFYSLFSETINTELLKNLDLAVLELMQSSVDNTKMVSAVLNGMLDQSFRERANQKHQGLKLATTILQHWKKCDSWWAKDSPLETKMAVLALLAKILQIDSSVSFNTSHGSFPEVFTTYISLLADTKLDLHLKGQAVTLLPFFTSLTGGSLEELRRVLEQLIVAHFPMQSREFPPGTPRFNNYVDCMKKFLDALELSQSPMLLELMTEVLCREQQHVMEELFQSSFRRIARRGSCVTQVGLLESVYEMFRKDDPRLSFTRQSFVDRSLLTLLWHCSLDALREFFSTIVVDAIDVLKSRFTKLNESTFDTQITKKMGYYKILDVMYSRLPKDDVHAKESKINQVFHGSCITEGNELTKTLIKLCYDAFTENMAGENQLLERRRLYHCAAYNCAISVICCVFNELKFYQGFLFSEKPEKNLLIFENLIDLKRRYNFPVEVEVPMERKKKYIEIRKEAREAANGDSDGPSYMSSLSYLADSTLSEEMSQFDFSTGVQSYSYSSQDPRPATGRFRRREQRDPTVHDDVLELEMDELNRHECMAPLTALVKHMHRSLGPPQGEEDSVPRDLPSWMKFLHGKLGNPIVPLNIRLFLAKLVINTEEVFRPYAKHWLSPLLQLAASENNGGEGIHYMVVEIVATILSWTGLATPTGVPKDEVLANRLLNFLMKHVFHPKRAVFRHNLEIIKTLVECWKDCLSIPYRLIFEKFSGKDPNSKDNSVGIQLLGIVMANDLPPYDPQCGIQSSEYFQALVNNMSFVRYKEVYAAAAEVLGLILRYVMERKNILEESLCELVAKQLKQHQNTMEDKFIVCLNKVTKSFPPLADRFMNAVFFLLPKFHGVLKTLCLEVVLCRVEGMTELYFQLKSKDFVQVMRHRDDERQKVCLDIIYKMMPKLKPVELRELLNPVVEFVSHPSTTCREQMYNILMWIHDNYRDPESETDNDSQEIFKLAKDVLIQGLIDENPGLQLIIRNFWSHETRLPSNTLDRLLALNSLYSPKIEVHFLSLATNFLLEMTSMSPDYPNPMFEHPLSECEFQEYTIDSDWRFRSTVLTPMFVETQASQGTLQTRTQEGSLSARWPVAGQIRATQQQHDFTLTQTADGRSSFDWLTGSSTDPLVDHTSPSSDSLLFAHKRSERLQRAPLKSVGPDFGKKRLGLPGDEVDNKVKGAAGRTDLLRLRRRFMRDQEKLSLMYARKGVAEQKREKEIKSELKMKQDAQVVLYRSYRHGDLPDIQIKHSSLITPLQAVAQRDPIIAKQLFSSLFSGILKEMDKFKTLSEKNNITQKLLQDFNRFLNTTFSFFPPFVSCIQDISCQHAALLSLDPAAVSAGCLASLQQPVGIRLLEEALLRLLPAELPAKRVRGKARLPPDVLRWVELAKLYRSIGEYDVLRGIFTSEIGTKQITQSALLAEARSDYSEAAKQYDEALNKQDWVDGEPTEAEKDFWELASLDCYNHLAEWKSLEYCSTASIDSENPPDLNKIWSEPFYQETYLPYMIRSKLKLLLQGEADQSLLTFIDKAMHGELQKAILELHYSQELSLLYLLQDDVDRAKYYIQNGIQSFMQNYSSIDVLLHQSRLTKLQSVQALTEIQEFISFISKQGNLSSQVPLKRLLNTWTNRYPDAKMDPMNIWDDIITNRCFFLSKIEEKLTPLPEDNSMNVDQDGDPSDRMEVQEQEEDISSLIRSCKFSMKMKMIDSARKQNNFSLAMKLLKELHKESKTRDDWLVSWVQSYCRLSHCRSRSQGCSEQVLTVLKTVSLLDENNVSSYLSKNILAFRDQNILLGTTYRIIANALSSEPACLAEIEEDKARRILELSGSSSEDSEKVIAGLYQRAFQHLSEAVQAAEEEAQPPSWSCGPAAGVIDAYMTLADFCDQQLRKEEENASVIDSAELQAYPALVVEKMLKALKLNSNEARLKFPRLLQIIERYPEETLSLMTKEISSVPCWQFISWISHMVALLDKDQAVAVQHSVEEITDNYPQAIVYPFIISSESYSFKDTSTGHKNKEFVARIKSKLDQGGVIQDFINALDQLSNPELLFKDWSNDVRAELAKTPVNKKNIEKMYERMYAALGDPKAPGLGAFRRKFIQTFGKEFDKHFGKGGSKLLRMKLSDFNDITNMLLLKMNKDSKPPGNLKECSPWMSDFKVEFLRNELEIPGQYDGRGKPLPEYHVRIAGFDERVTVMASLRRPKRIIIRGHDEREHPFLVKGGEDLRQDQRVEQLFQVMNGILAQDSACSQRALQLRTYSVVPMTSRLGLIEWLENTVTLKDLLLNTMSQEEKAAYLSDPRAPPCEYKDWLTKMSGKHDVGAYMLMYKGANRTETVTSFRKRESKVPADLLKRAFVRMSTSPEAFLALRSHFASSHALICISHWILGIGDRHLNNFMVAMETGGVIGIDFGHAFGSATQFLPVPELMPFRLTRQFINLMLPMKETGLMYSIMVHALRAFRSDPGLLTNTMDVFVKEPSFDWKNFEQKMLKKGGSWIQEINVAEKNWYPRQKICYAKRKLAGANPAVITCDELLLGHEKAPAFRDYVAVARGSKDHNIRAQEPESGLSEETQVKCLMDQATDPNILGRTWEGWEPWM

Columns and labels:
[1] = target: T1, GST-tagged FLCN (folliculin) (human) (UniProt Q8NFG4); assay: pull-down; GST-FLCN in HEK293 lysate held on glutathione-Sepharose 4B beads, 4°C, 3 h; washed 5 times in BHD lysis buffer with 300 mM NaCl for DNA-PKcs (250 mM for all other proteins); eluted with 10 mM glutathione; endogenous proteins detected by western blot
T1 sequence: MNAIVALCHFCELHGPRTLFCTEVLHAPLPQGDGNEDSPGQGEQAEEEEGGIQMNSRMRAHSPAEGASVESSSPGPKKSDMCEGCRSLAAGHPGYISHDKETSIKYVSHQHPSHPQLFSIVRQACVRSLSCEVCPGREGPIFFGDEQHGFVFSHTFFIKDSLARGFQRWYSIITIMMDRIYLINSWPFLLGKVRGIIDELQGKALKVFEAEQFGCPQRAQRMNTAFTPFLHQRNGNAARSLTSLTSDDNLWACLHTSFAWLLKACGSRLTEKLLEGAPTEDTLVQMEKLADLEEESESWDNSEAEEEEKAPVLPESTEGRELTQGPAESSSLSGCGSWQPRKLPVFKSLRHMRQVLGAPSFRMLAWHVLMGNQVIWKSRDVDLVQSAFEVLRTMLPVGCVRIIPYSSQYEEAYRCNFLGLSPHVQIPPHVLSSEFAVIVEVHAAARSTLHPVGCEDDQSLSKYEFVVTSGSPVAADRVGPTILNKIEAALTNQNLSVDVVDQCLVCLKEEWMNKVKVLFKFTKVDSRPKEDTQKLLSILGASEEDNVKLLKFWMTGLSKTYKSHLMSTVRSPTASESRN

[2] = target: T1, GST-tagged FLCN (folliculin) (human); assay: condition: only cells irradiated (5 or 10 Gy) 1 or 4 h before lysis; pull-down; GST-FLCN overexpressed in HEK293 cells that were subjected to IR (5 or 10 Gy) and left for 1 or 4 h prior to lysis; GST-FLCN purified, endogenous DNA-PKcs detected via western blotting
[3] = target: T2, HA-tagged FLCN Y463X (human) (UniProt Q8NFG4); assay: co-IP; HA-FLCN constructs overexpressed in HEK293 cells; precleared lysates, anti-HA antibodies 2 h at 4°C, protein G-Sepharose; endogenous DNA-PKcs detected via western blotting
T2 sequence: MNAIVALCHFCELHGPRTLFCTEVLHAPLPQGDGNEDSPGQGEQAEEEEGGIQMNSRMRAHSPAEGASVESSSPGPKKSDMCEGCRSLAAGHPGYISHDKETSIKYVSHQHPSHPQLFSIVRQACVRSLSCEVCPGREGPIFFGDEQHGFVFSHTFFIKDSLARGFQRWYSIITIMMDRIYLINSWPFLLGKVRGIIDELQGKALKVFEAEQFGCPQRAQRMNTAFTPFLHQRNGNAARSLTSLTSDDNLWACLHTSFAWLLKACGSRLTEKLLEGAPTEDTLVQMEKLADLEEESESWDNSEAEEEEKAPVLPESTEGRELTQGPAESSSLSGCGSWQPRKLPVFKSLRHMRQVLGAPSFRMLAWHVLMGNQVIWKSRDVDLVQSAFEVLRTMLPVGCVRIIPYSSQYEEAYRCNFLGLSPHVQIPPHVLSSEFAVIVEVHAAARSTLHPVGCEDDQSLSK

[4] = target: T3, HA-tagged FLCN H429X (human) (UniProt Q8NFG4); assay: as above
T3 sequence: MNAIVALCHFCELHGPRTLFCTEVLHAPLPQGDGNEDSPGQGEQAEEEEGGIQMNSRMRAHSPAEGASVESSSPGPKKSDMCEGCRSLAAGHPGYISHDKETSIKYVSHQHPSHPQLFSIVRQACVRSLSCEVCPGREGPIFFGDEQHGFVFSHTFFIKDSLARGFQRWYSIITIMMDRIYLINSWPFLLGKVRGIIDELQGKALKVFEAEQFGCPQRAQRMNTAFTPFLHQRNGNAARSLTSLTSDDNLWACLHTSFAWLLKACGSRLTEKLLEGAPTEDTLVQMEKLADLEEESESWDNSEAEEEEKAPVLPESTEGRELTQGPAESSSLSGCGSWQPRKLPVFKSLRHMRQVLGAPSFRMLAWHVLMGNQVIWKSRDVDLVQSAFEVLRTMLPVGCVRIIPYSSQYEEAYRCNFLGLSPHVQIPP

[5] = target: T4, HA-tagged FLCN wild type (human) (UniProt Q8NFG4); assay: as above
T4 sequence: T1 sequence

[6] = target: T5, endogenous FLCN (folliculin) (human (endogenous; the cell line of Fig. 5B is not stated, the paper's cell lines HEK293 and HK2 are human)) (UniProt Q8NFG4); assay: co-IP; endogenous FLCN immunoprecipitated with an antibody against N-terminal FLCN; endogenous DNA-PKcs detected via western blotting
T5 sequence: T1 sequence

ATR (from UniProt Q13535 1-2644)
binding [1]: no binding

DNA-dependent protein kinase catalytic subunit (DNA-PKcs) (from UniProt P78527 1-4128)
binding [2]: no binding
binding [3]: binds
binding [4]: binds
binding [5]: binds
binding [6]: binds
binding [1]: binds
